In the supplement of paper PMC10986608:
The other results are listed elsewhere or left out. Most values come without repeats; read them as rough.

tested on: Candida albicans DPL-15; test: growth (OD600) after compound treatment (apparently relative to screen median) (relative growth (fraction; screen median 1.02)); DPL-15 is a caspofungin-resistant clinical isolate; higher = more fungal growth (less antifungal activity); details: 25 µM; RPMI 1640; 48 h; 30 °C

Compound | growth
COC(=O)N[C@@H]1[C@@H](C)[C@H](OC)[C@]23C=CC=C[C@H]2[C@]13CCN1CCOCC1 | 1.36
CC1CC(c2ccccc2)=CC1=O (configuration not stated) | 1.01
CC(=O)C1=C2C=CCCN2C(=O)NC1c1cc(OC(F)(F)F)ccc1C (configuration not stated) | 0.945
CC1=NCCNC2=C1C(c1ccc(F)cc1)N(c1ccccc1)C2=O (configuration not stated) | 1
COC(=O)C1=C(C(=O)OC)[C@@H]2N(CC=C(C)C)c3ccccc3[C@@]23CCC(=O)N(CCc2ccccn2)C3=N1 | 0.911
COc1ccc(CO/N=C2/CCCC/C=C/COC(=O)c3c(O)cc(O)cc3C2)cc1 | 1.24
C=CCN1C(=O)C2=C(C(C(C)C)=NCCN2C)C1c1cccc(C(F)(F)F)c1 (configuration not stated) | 1.01
COC(=O)C1=C[C@@H]([C@@H](C)[C@H](OC)c2ccccc2Br)[C@@H]2OCCC[C@H]12 | 1.15
CC1=NCCNC2=C1C(c1ccc3c(c1)OCO3)N(c1ccccc1)C2=O (configuration not stated) | 1.06
COc1ccc(Cn2nc(-c3ccoc3)cc2Nc2cc(O)cc(O)c2C(=O)N2Cc3cn[nH]c3C2)cc1 | 0.96
COc1ccc(N2C(=O)C3=C(C(C)=NCCN3)C2c2ccc3c(c2)OCO3)cc1 (configuration not stated) | 1
COc1cc(N2C(=O)c3[nH]nc(CC(C)C)c3C2c2ccc(F)cc2)ccc1F (configuration not stated) | 1.06
CCNC(=O)c1cc(-c2c(Br)cc(OC)cc2OC)on1 | 1.04
CCCCN(C(=O)OC(C)(C)C)S(=O)(=O)NC(C)(C)C | 1.25
CC(C)(C)c1ccc(C#C[C@@H]2C=C[C@H](OC(N)=O)[C@@H](COC(N)=O)O2)cc1 | 1.09
CCO[C@@H]1CCN(C(=O)c2c(O)cc(O)cc2Nc2c(C)nn(C)c2C)C1 | 1.2
COC(=O)c1c(-c2ccccc2Br)c2c(c3c1[nH]c1ccccc13)C(=O)N(C)C2 | 1.07
CCCCS(=O)(=O)N1CCCc2nc(C)c(C)cc21 | 1.03
COCOc1cc(OC)cc(O)c1C(=O)/C=C/c1ccsc1 | 1.01
COC(=O)C/C=C/[C@H](C)[C@@H](/C=C/c1ccccc1)NC(=O)C(F)(F)F | 0.963
COc1ccc(C[C@@H](C)[C@@H](C)Cc2ccc(OC)c(OC)c2)cc1OC | 1.02

Compound | growth
C=CC[C@H]1CC2=C(OC1(C)C)C(C(=O)c1ccccc1)=C(O)C(CC=C)(CC=C)C2=O | 0.716
CC(C)(C)c1ccc2c(c1)C1(Cc3occc(=O)c3OS(C)(=O)=O)CCCCC1=N2 (configuration not stated) | 1.04
CC(=O)Nc1ccc([C@@H]2C=C[C@@H](OC(C)=O)[C@@H](COC(C)=O)O2)cc1 | 0.961
COc1ccc(C(=O)COC(=O)c2c(N)cccc2F)cc1 | 1.1
O=C1NC(c2ccccc2)c2c1nn(-c1ccc(OC(F)(F)F)cc1)c2-c1ccccc1 (configuration not stated) | 1.03
COc1ccccc1N1C(=O)c2[nH]nc(CC(C)C)c2C1c1cccc(C(F)(F)F)c1 (configuration not stated) | 1.09
COc1cc2c(c(OC)c1)COC(=O)C2 | 0.968
CC1=C[C@H]2c3c(c(O)c(O)c4oc5ccc(C(F)(F)F)cc5c(=O)c34)[C@H](c3cc(O)c(O)c4oc5ccc(C(F)(F)F)cc5c(=O)c34)[C@H]2C(C)(C)C1 | active: 0.0939
Cc1ccc(S(=O)(=O)N/N=C/c2cccc(C(=O)ON3C(=O)CCC3=O)c2)cc1 | 1.05
Cc1nn(C)c(C)c1Nc1cc(O)cc(O)c1C(=O)N1CC2CC2C1 (configuration not stated) | 1.05
CC1=NCC(C)(C)NC2=C1C(c1ccc3c(c1)OCO3)NC2=O (configuration not stated) | 0.976
COC(=O)C1=C(C)NC(=O)NC1c1cccs1 (configuration not stated) | 1.15
CCCCCCCc1cc(C(F)(F)F)cc(CCCCCCC)n1 | 1.16
CC(C)(C)NS(=O)(=O)OCCCCCOCc1ccccc1 | 1.09
Cc1cc2c(nc1C)CCCN2C[C@@H]1CO1 | 1.04
COC(=O)C1=C(C)N(Cc2ccc(C(F)(F)F)cc2)C(NCCCOC(C)C)=NC1c1ccccc1 (configuration not stated) | 0.89
COc1cc(O)c(C(C)=O)c(OC)c1 | 1.12
CC(C)C1=NCCNC2=C1C(c1cccc(C(F)(F)F)c1)N(c1ccccc1)C2=O (configuration not stated) | 1.03
CC(=O)C1=C(C)N(Cc2ccc(Br)cc2)C(=S)NC1c1cccc(Br)c1 (configuration not stated) | 0.919
CC(C)C1=NCCNC2=C1C(c1cccc(C(F)(F)F)c1)NC2=O (configuration not stated) | 1.06
COC(=O)N[C@@H]1[C@@H](C)[C@H](OC)[C@]23C=CC=C[C@H]2[C@]13CCN(C(C)C)C(C)C | 1.17

Compound | growth
Cc1ccc(S(=O)(=O)N/N=C/c2cccc(C(=O)NCC(CC(=O)ON3C(=O)CCC3=O)c3ccccc3)c2)cc1 (configuration not stated) | 1.04
CS(=O)(=O)Oc1c(C[C@@]23CCCCC2=Nc2cc(F)cc(F)c23)occc1=O | 1.13
C[C@@H]1C=C(I)[C@@]2(CCCO)c3c(oc4ccccc34)-c3ccccc3[C@@H]12 | 0.75
COc1cc(OC)c2c(c1)N(C)[C@]1(c3ccc(Br)cc3)C(=O)[C@@]2(O)[C@H](c2ccccc2)[C@H]1c1ccccc1 | 1.06
C[C@@H]1/C=C/CC(=O)OCCCCC(=O)N[C@@H]1c1ccccc1 | 1.04
COc1ccc(N2C(=O)c3[nH]nc(CCC(C)C)c3C2c2ccc(F)cc2)cc1 (configuration not stated) | 1.02
CC(=O)OC[C@H]1O[C@H](c2ccc(Br)cc2)C=C[C@@H]1OC(C)=O | 0.861
COC(=O)C1=Cc2ccc(F)cc2[C@H](c2ccc(F)cc2)[C@H]1C(=O)OC | 1.11
Cc1nn(C)c(C)c1Nc1cc(O)cc(O)c1C(=O)N1CCC(F)(F)C1 | 1.06
COC(=O)Cc1cc(O)cc(O)c1C(=O)OC | 1.11
C=C(C)CC[C@H](Cc1c(O)cc(O)c2c1O[C@H](c1ccc(O)cc1)CC2=O)C(=C)C | 0.902
CCOc1ccccc1C(=O)/C=C/c1ccc2ccccc2c1 | 0.987
CCn1cc(CCC(=O)NCc2ccc(O)c(OC)c2)nn1 | 1.02
C[C@H]1[C@@H]2C[C@@]3(O[C@H](C4CCNCC4)N=C3C[C@@H]1c1ccccc1)N(Cc1cccs1)C2=O | 1.01
Cc1ccc(S(=O)(=O)n2c3c(c4ccccc42)[C@H](/C=C/c2ccccc2)[C@@H]([C@H](O)CBr)OC3)cc1 | 0.879
CNC(=O)c1nnc(C(=O)OC)c2c1c1ccccc1n2S(=O)(=O)c1ccc(C)cc1 | 0.913
COc1ccc(N2C(=O)c3[nH]nc(CC(C)C)c3C2c2c(Cl)cccc2Cl)cn1 (configuration not stated) | 0.939
COC(=O)C1=C(C)N(Cc2ccccc2C(F)(F)F)C(=S)NC1c1cccc(Br)c1 (configuration not stated) | 1
CC1=NCCNC2=C1C(c1cccc(C(F)(F)F)c1)N(Cc1ccccc1)C2=O (configuration not stated) | 0.996
CC(C)CCN(C(=O)OC(C)(C)C)S(=O)(=O)NC(C)(C)C | 1.1
COc1ccc(S(=O)(=O)N2CCCc3nc(-c4ccccc4)ccc32)cc1 | 0.894

Compound | growth
CCOC(=O)C1=CN(CCNC(=O)OC(C)(C)C)C(=O)NC1c1ccccc1 (configuration not stated) | 1.07
CC(C)Cc1n[nH]c2c1[C@@H](c1ccc(F)cc1)N(c1ccc3ncnn3c1)C2=O | 0.972
O=C(/C=C/c1ccccc1Br)c1ccccc1O | 0.914
COC(=O)[C@]1([C@H]2CCC(=O)O2)CC(=O)c2c(ccc(Br)c2O)O1 | 1.21
CC(C)C1=NCC(C)(C)NC2=C1C(c1ccc(Br)cc1)N(Cc1ccccc1)C2=O (configuration not stated) | 0.988
CC1(C)CN=C(c2ccccc2)C2=C(N1)C(=O)NC2c1ccccc1 (configuration not stated) | 1.06
O=C1C[C@@H](c2ccccc2)[C@]2(c3ccc(Br)cc3)Oc3cc(F)cc(F)c3[C@]12O | 1.22
COc1ccc(-c2cnnc(CCCn3ccnc3-c3ccccc3)n2)cc1 | 0.863
O=C(/C=C/c1ccc(OCc2ccccc2)cc1OCc1ccccc1)c1ccc(O)cc1O | 1.14
CCOC(=O)c1cc(-c2c(Br)cc(OC)cc2OC)on1 | 1.11
COc1ccc(-c2ccc3c(n2)CCCN3S(=O)(=O)c2ccc(C#N)cc2)cc1 | 0.909
O=c1c2ccc(O)c(O)c2oc2cc(O)cc(O)c12 | 1.04
COC(=O)C1=C(C)N(Cc2ccccc2Cl)C(=S)NC1c1cccc(Br)c1 (configuration not stated) | 0.897
CC1=NCCN(C)C2=C1C(c1ccc3c(c1)OCO3)NC2=O (configuration not stated) | 1.02
CC(C)Cc1n[nH]c2c1C(c1cccc(C(F)(F)F)c1)N(c1ccc(F)cc1)C2=O (configuration not stated) | 1.12
COc1ccc(N2C(=O)c3[nH]nc(CC(C)C)c3C2c2ccc(C)s2)cc1 (configuration not stated) | 1.1
Cc1ccc(C2NC(=O)c3c2c(C)nn3-c2ccccc2)cc1 (configuration not stated) | 1.16
N#CCN1Cc2cc(-c3ccccc3)c(-c3ccccc3)nc2C1 | 0.808
CC(=O)N[C@@H]1[C@@H](C)[C@H](OCc2ccccc2)[C@]23C=CC=C[C@H]2[C@]13CCN(C(C)C)C(C)C | 1.31
